The campaign covered roughly 310,000 compounds. About 2,200 (0.71%) showed an effect of 50% or more. Effects have a minus sign here. The list shows a part of the results.
biological target: human ether-à-go-go-related gene (hERG) potassium channel (human, UniProt Q12809); experiment: primary screen, population patch clamp on CHO cells stably expressing hERG
Sequence (Q12809 whole entry, looked up): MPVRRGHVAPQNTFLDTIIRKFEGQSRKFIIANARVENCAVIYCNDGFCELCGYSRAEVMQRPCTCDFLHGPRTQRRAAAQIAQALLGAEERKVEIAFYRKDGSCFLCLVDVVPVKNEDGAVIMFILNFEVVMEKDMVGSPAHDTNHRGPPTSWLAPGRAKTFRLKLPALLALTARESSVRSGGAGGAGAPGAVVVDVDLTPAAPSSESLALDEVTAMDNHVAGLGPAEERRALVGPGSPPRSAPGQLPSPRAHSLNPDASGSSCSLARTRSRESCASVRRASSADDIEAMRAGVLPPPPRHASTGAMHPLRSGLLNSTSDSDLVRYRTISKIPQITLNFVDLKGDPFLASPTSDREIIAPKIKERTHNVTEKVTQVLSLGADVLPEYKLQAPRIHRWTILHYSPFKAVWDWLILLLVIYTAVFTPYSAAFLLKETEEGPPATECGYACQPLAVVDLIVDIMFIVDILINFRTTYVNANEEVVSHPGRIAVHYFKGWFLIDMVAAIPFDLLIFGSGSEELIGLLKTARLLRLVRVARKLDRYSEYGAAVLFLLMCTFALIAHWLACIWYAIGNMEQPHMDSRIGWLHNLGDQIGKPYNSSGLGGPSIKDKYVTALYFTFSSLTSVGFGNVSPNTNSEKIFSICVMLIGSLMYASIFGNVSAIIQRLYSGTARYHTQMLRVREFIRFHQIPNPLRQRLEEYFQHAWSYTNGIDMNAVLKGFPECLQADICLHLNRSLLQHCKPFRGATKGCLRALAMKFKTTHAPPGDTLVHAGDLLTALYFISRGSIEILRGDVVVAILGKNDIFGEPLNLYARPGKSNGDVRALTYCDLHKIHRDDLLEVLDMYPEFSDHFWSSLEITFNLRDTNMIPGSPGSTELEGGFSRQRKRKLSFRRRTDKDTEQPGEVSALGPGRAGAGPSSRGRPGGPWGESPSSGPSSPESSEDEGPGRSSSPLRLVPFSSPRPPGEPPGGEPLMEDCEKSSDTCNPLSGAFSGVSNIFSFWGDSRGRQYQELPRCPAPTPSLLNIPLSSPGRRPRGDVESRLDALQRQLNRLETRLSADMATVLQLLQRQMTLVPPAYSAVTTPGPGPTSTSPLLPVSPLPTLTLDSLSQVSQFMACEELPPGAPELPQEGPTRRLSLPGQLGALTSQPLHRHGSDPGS

| SMILES | hERG current change (%, negative = inhibition) at 1uM [%] |
| --- | --- |
| O=c1oc2ccccc2cc1-c1cn2ccccc2n1 | 8.38 |
| O=C(CNS(=O)(=O)c1ccc(Br)s1)N1CCN(C(=O)c2ccco2)CC1 | -10.5 |
| Cc1cccc(Cl)c1NC(=S)NN | 4.59 |
| Cc1ccnc(NCn2nnc3ccccc32)c1 | 15.6 |
| O=C(COC(=O)c1ccc(O)cc1)NCC1CCCO1 (stereo not drawn) | 17.3 |
| COc1ccc(C(=O)N2CCN(S(=O)(=O)c3cc(Cl)ccc3OC)CC2)cc1 | 3.46 |
| COC(=O)/C=C/C(=O)Nc1cccnc1 | 3.5 |
| CCCc1nc2c(o1)CC(CC(C)SCC)CC2=O (stereo not drawn) | -11.3 |
| CC(=O)O[C@]1(C(C)=O)CC[C@H]2[C@@H]3C=CC4=CC(=O)C=C[C@]4(C)[C@H]3CC[C@@]21C | 17.2 |
| Cc1cccc(S(=O)(=O)c2c(N)n(/N=C/c3ccco3)c3nc4ccccc4nc23)c1 | 10.1 |
| Cc1nc2cc(-c3ccccc3)nn2c(N)c1-c1ccccc1 | 12.7 |
| CC(C)n1cc([C@@H]2C[C@H]3CN(Cc4cccc(Cl)c4)C(=O)[C@]34CCCN24)cn1 | 0.99 |
| CCCN(CC(=O)Nc1cc(C)on1)CC(=O)Nc1ccccc1C | 12.2 |
| Cc1ccc(C)c(OCCC(=O)OC(C)C(=O)Nc2c(C)n(C)n(-c3ccccc3)c2=O)c1 (stereo not drawn) | 0.295 |
| COc1ccc(N2C(=O)/C(=C/c3ccc(N(C)C)o3)C(=O)NC2=S)cc1 | 13.6 |
| CC(C)CCNC(=O)C(C)N(C(=O)Cn1nnc(-c2ccc(F)cc2)n1)C1CCCC1 (stereo not drawn) | 0.287 |
| CC(C)NS(=O)(=O)c1cccc2nsnc12 | 0.0421 |
| Cc1cc(C)c(NC(=O)Cc2ccc(-n3cccc3)cc2)c(C)c1 | 11.4 |
| Cc1cccc(-n2c(SCC(=O)NCc3ccc4c(c3)OCO4)nc3ccccc3c2=O)c1 | 9.15 |

| SMILES | hERG current change (%, negative = inhibition) at 1uM [%] |
| --- | --- |
| CCc1nnc(NS(=O)(=O)c2ccc(N=Cc3c(C)[nH]n(-c4ccc(C)c(C)c4)c3=O)cc2)s1 | 10.8 |
| O=C(N/N=C/c1cccc([N+](=O)[O-])c1)c1cccc(Br)c1 | 14.7 |
| COc1cc(Cn2c(=O)c3c(OC)c(C)cnc3n(C)c2=O)cc(OC)c1 | 6.04 |
| O=C(CNC(=O)c1ccc(Br)o1)NCc1ccc2c(c1)OCO2 | 10.1 |
| COc1ccccc1C(=O)N/C(=C\c1ccccc1)C(=O)NC(Cc1ccccc1)C(=O)O (stereo not drawn) | 13 |
| O=C(COC(=O)c1ccc(Cl)cc1O)NC(=O)C1CCCCC1 | 9.84 |
| CCOc1ccc2nc(NC(=O)CN3CCN(CC)CC3)sc2c1 | 4.81 |
| CCOC(=O)c1sc(=NC(=O)c2ccco2)n(C)c1C | 6.99 |
| O=S1(=O)CCC(N=Nc2c(O)n(Cc3ccccc3)c3ccccc23)C1 (stereo not drawn) | -6.53 |
| COc1ccc(C(=O)CSc2nc(C)cc(=O)[nH]2)cc1C | 6.63 |
| CCOc1ccc(Nc2ncnc3c2cnn3C)cc1 | 4.41 |
| Cc1ccc(C(=O)N2CCCCCC2)cc1S(=O)(=O)Nc1ccccc1 | -0.546 |
| COCCN(Cc1cc2cc(C)ccc2n2nnnc12)C(=S)Nc1cccc(C)c1 | 20.4 |
| Cc1cccc(-n2c(=O)c3c(n4cnnc24)-c2ccccc2CC32CCCCC2)c1 | 2.46 |
| CCc1nc(CN2CCN(c3cc(C(F)(F)F)ccn3)CC2)c(C)[nH]1 | -2.03 |
| COc1ccc(OCCC(=O)OCC(=O)Nc2ccc(Br)cc2)cc1 | 10.5 |
| CCOC(=O)C1CCN(CCC(=O)Nc2cc(C)ccc2C)CC1 | 5.38 |
| CCCN1CCN(CCCNC(=O)Cn2cc3c(n2)CCCC3)CC1 | 11.1 |
| O=C(COc1ccc2c3c(c(=O)oc2c1)CCC3)N1CCN(c2ccccc2)CC1 | 16.3 |

| SMILES | hERG current change (%, negative = inhibition) at 1uM [%] |
| --- | --- |
| CCCN(CC(=O)Nc1ccc(Cl)cc1Cl)C(=O)CC(NC(C)=O)c1ccccc1 (stereo not drawn) | 10.4 |
| O=C(NCc1ccccc1)c1ccccc1C(=O)c1ncc[nH]1 | 15 |
| COC(=O)C1=C(c2cccc(C#N)c2)C[C@@H]2CC[C@H]1N2C(=O)N1CCCC1 | 15.3 |
| O=C(COC(=O)c1cn(-c2ccccc2)nc1-c1ccc(F)cc1)Nc1ncc(Cl)cc1Cl | 2.4 |
| Cc1nc2c(-c3ccc(F)cc3)c(C)nn2c(C)c1CCC(=O)Nc1ccccc1F | -9.35 |
| Cn1ccnc1COc1ccc(/C=N/O)cc1 | 12.8 |
| COc1ccc(C(=O)NC(=S)NNC(=O)c2ccc(NC(C)=O)cc2)cc1Br | 11 |
| Cn1c(NCc2cccs2)nc2ccccc21 | 4.22 |
| COc1ccc(CS(=O)(=O)CC(C)(O)c2ccc(Cl)cc2)cc1 (stereo not drawn) | 14.7 |
| COc1ccc(C(=O)/C=C/c2cc(C(=O)O)cc3c2OCOC3)c(O)c1 | 0.557 |
| Cc1ccc(N2NC3(CCN(C(N)=O)CC3)NC2=O)cc1 | 8.75 |
| COC(=O)c1ccc(N2CCN(C)CC2)c(NC(=O)COc2ccc(OC)cc2)c1 | -17 |
| CCOc1ccccc1C(C(=O)NCCOC)N(CCOC)C(=O)Cn1nnc2ccccc21 (stereo not drawn) | 17.1 |
| COCCCn1c(SCC(=O)OC2CCCCC2)nnc1-c1ccco1 | -19.9 |
| O=C(C1=C(O)C(=O)N(CCOCCO)C1c1ccccn1)c1cccs1 (stereo not drawn) | 12.5 |
| OCCNC(=S)Nc1ccc(Cl)c(Cl)c1 | 7.96 |
| COc1ccc(OC)c(S(=O)(=O)Nc2cnc3ccccc3c2)c1 | 2.23 |
| O=C(N/N=C/c1ccc(-n2ccnc2)cc1)c1cccs1 | -4.74 |
| O=C(Nc1ccccc1Cl)N1CCN(c2ccccn2)CC1 | -8.81 |
